Among all 150,000 compounds or so, about 540 (0.36%) showed an effect of 50% or more. This is one part of the list.
These molecules were tested on Plasmodium falciparum (assay: Primary screen in NF54 nanoGlo assay, in single point, at 2uM, 72h; a lower Z score goes with more inhibition). Settings: timepoint 72 hour.
Format: functional, Erythrocyte

Structure (SMILES) | % Inhibition | Z score
Cc1nc(C(=O)N2CCN([C@H](C#N)C3CCCCC3)CC2)cs1 | -23% | 2.75
CNC(=O)CN1CCN(C(=O)N2CCC(C)CC2)CC1 | -18% | 2.36
CC(C)Oc1ccc(C2CC(=O)N(c3cccc(N4C(=O)CC(c5ccc(OC(C)C)cc5)C4=O)c3)C2=O)cc1 (stereo unspecified) | -7% | 0.93
CCOc1ccc(N(C)CCNS(C)(=O)=O)cc1 | -13% | 1.57
CCN(CC)C(=O)N1CCC(c2nc(-c3ccncc3)cs2)CC1 | -11% | 1.98
Cc1cccc2c(NCC(C)(C)CCS(C)(=O)=O)c(C#N)cnc12 | 7% | -1.36
CS(=O)(=O)Nc1ccc(-n2nnn(CC(=O)NC3CC3)c2=O)cc1 | -6% | 1.22
O=C(NC1CC1)c1cc(NS(=O)(=O)c2ccc(C3CCCCC3)cc2)cnc1N1CCNCC1 | -11% | 1.81
COc1cccc2sc(OC3CN(C(=O)c4ccn(C)n4)C3)nc12 | -7% | 1.18
COc1cc(CCc2ncnn2CCO)ccc1C | -13% | 1.74
Cc1cc(C)nc(CN(C)CCC(=O)Nc2ccccc2C(C)C)c1 | -16% | 2.3
Cn1ccc(CCNC(=O)N2CCC[C@@H](CN3CCOCC3)C2)n1 | -17% | 3.19
COc1ccc(Br)cc1CN1CCC[C@H]1c1cc(C(C)C)no1 | 2% | -0.24
CCC1(c2ccccc2)CN(C(=O)c2c(C)nn(C)c2Cl)C1 | 0% | 0.02
Cn1c(=O)ccc2ccc3ccccc3c21 | -11% | 1.42
CC1CCCCC1N(C)Cc1nccn1C(F)F (stereo unspecified) | -13% | 1.14
N#Cc1cc2c([nH]c1=O)CCN(C(=O)c1ccc(OC(F)(F)F)cc1)C2 | -9% | 1.46
Cc1ccc(COC(=O)Cn2nnc3ccccc32)cc1 | 12% | -0.97
Cc1cc(=O)c2ccccc2n1CC(=O)N1CC[C@H](Cc2ccc(CO)cc2)C1 | -9% | 1.46
CCCN(CC#Cc1ccccc1)Cc1cc(C#CCO)cs1 | 0% | -0.05
C[C@@H](C(=O)N1CCN(c2cccc(C(F)(F)F)c2)CC1)n1nc(-n2cccn2)ccc1=O | 3% | -0.55
CC(C)CC(C)N(C(=O)CCC1CCCO1)c1ccc2[nH]ccc2c1 (stereo unspecified) | 7% | -1.01

Structure (SMILES) | % Inhibition | Z score
Cc1ocnc1C(=O)[C@H](C#N)C(=O)Nc1ccc(F)c(Cl)c1 | 30% | -3.83
CS(=O)(=O)c1cccc2sc(N(CCN3CCOCC3)C(=O)c3cnccn3)nc12 | 7% | -1.1
CCCc1nc(CNS(=O)(=O)N2CCN(C)CC2)cs1 | -8% | 1.01
C[C@H]1CN(Cc2nc3c(s2)CCC3)C(C)(C)CO1 | 5% | -0.52
CC(=O)N1N=C(c2ccc3ccccc3c2)O[C@H]1c1ccncc1 | 2% | -0.21
Cn1c(=O)c2c([C@H]3C(=O)Nc4ccccc43)c(-c3ccc(Br)cc3)[nH]c2n(C)c1=O | -2% | 0.16
CC1CCN(c2nnc(C(=O)Nc3cccc(Cl)c3)c3ccccc23)CC1 | -8% | 1.29
O=C(Nc1ccc(Cl)cn1)c1cccc(C(=O)Nc2ccc(Cl)cn2)n1 | -13% | 1.54
CCNc1cc(CNc2ncncc2Cl)ccn1 | -3% | 0.5
Cc1cccc(CN2N=C(C(=O)N3CCCCC3)S(=O)(=O)c3ccc(C)cc32)c1 | -3% | 0.32
CCCn1ncc(C(=O)N2C[C@H]3CC[C@@H](C2)N(CCOC)C3)c1C | -8% | 1.08
C[C@@H](NCc1ccc2c(c1)COC(C)(C)O2)c1cccc(O)c1 | -21% | 2.42
Cc1nc(-c2ccncc2)nc(NCCS(C)(=O)=O)c1C | -1% | 0.15
COCCCN(CC(=O)N(CCc1c[nH]c2ccccc12)Cc1ccc(Cl)cc1)C(=O)Nc1ccccc1 | -3% | 0.49
CCc1cnc(CCNS(=O)(=O)N2CC(C)CC(C)C2)s1 (stereo unspecified) | -1% | 0.25
Cc1ccc(C)c(CNC2(c3nc(C(C)C)no3)CCOCC2)c1 | 3% | -0.35
CCN1CCC(CC(=O)N(C)[C@@H](C)c2ccon2)CC1 | -5% | 0.82
COc1ccc(S(=O)(=O)N(C)Cc2nnc(-c3ccc(Cl)cc3)o2)cc1 | 1% | -0.11
COCCN(CC1CN(CC(O)CN2CCOCC2)CCO1)C(=O)c1ccccc1F (stereo unspecified) | -19% | 2.39
Cc1ccc2c3c(cnc2c1C)C(=O)NCCN3 | 11% | -1.4
O=C(NCCc1nc2cc(F)ccc2s1)Nc1nncs1 | -4% | 0.47

— ChEMBL document CHEMBL4888484, “Replenishing the malaria drug discovery pipeline: Screening and hit evaluation of the MMV Hit Generation Library 1 (HGL1) against asexual blood stage Plasmodium falciparum ,using a nano luciferase reporter read-out” (2022)
